Results as given in paper PMC12136788.
This is one part of the list.

T1: UNK ZnF1-3 (human, UniProt Q9C0B0 31-174)
T1 sequence: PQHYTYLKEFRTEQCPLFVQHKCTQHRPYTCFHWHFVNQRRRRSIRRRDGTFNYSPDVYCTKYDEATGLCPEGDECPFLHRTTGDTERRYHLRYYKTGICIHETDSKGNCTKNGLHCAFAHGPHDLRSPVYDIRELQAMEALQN

B1: chr2:238002776:238002777:+_ENSG00000198612_ENST00000392008|hu_mus|motif|central (ssRNA)
RNA: GGGAGUUCUACAGUCCGACGAUCGAUGGAGGUAUAAGCUUGAGAGACCAGGGCAAAGGCGCGUCUCCUUGUUGCAUCUCGGAGGGCUUCCAUGAUUGGCUGCACAGUCUCUGACCACUGGUGGGCGUUGAUGGUUGUAUAGAUCAACAGAGGAUUGAGCAUCA
B2: chr6:44218252:44218253:+_ENSG00000096384_ENST00000371646|hu_mus|FALSE|FALSE (ssRNA)
RNA: GGGAGUUCUACAGUCCGACGAUCAUUGGUGAGGCUCUUAUAGAAUUCGCCAUACUCCUCCUGCGUGAUGUCAUCCGGGUUUCUGGUCCAGAUAGGCUUUGUCUUGUUCAGCUCCUCCUGGUCAAUGUACUUCUCUUUGAUCUUCAACAGAGGAUUGAGCAUCA
B3: chr5:72798899:72798900:+_ENSG00000145741_ENST00000335895|hu_mus|FALSE|FALSE (ssRNA)
RNA: GGGAGUUCUACAGUCCGACGAUCGGGUGCUUUUCCAUCCACAGAUUGUUUGGGCAGAGCUUCAGCCAGUCUCCUUAAACUAGUCAGGCUGUCUGCACCAAGCUGGUUGAGGAUGCUGGGAAGCAUUUCUGUCAGCUGCUUUGUCAACAGAGGAUUGAGCAUCA
B4: chr11:29608197:29608198:+_ENSMUSG00000020458_ENSMUST00000102843|mus_mus|motif|central (ssRNA)
RNA: GGGAGUUCUACAGUCCGACGAUCUGGAAUUUCAUUAGAUGCAGCAUCUUUUGUAAUAUGUAAAUUGGGCUGAAAAGACUCGGAAUAUGGCUUUCCUACCUCCUGAGGUGAAGCACUAAGUCUCUCCUUAUGUUUGUGUUGUGUCAACAGAGGAUUGAGCAUCA
B5: chr12:25667166:25667167:+_ENSMUSG00000036333_ENSMUST00000066652|mus_hu|FALSE|FALSE (ssRNA)
RNA: GGGAGUUCUACAGUCCGACGAUCUCCUCUACAUAAUUUAUGACGCUCUGUGAUAUCAAAACUGACAUUUUCACAGAAAGCUGCAAUUAACUUUAUUUGAAUACCUGGUCCUCAGCUCCGGCGGAACGGGCCCGCUCGGCUGCACAACAGAGGAUUGAGCAUCA
B6: chr14:24607556:24607557:+_ENSG00000092010_ENST00000206451|hu_hu|FALSE|FALSE (ssRNA)
RNA: GGGAGUUCUACAGUCCGACGAUCAUCACCCACAUGGGGCUGCUUGGCUGCUUUAGUCACUGCAUCACCACGCUCAGAGAAAUACUUAGAGAUUUGAGUGUGGAAGCCUUCUAGCUUGGUGUGGAGGCUGGUCAUCAGCUCAAACAACAGAGGAUUGAGCAUCA
B7: chr1:25669491:25669492:+_ENSG00000183726_ENST00000374358|perfect_dup|FALSE|FALSE (ssRNA)
RNA: GGGAGUUCUACAGUCCGACGAUCACAGGUAUGGUAUGAAUGGUUGAAUUGAUCCAUCCUGGGGUACAUGACAGCCGCGUCUAUGAUGAUCCACCAUCCCGUGAAAAAUAGAACGCCAGCAGCGAUGGAGGCGAUCGUGUUCCGCAACAGAGGAUUGAGCAUCA
B8: 40924266_40931936_1095_CDS_ENSMUSG00000028423_ENSMUST00000098143|mouse|control|control (ssRNA)
RNA: GGGAGUUCUACAGUCCGACGAUCAAUCAGGGAACCUGUAUGUGUUUCCACAUUCUUCAGCAUAUGGUUCUGUUUGCCUCUGGGAAAAGGAGAUAGCACUUGGGGAUCCUGUCUCCUUACAGCAGUUUUCUCUUGGUUAACCCUCAACAGAGGAUUGAGCAUCA
B9: chr1:220275481:220275482:+_ENSG00000067704_ENST00000302637|hu_hu|motif|central (ssRNA)
RNA: GGGAGUUCUACAGUCCGACGAUCAAAUGCUGAUUUCUGUUUCUCAAUGGCUGCUUUAGCAAAUGAUCUAGCUUUCUUUCGGAUUUCCAUAGCUGAAAGAUUCUGAGCUUCUCUACCAAGUUCUGAUAAUACUUUUAUUUCAAUCAACAGAGGAUUGAGCAUCA
B10: chr6:65046092:65046093:+_ENSMUSG00000029920_ENSMUST00000031984|mus_mus|FALSE|FALSE (ssRNA)
RNA: GGGAGUUCUACAGUCCGACGAUCUAGAUGUUGAUAGCGGAUAGAGCCCAUAUUCUUCAGCAUAUGGCCUUCAUCAAAAAUUGCAUAAUUCAGUUUCAGUCGUCGAAAGAGACUGCGGUCAUCAGAGCUGCUGAUUGCACAAUUCAACAGAGGAUUGAGCAUCA
B11: chr12:55960871:55960872:-_ENSMUSG00000062929_ENSMUST00000078124|mus_mus|FALSE|FALSE (ssRNA)
RNA: GGGAGUUCUACAGUCCGACGAUCUACUAAGCUUUAAGACUGCUAUACGAUUUUUUUUUCCCAAUUCAUUUUGGAAAAGCUAUGAAGGAACUGUGGCUGAGACAAACAUUCCUAAACAUCACAAUCAUCAUUAACCUUCGAAUGCAACAGAGGAUUGAGCAUCA
B12: 59949808_59952380_2635_CDS_ENSG00000108506_ENST00000444766|human|control|control (ssRNA)
RNA: GGGAGUUCUACAGUCCGACGAUCCAGUGGGGGGCAUCUGUGAACCCUCUGAUCACACCUUAGGACAAUGAGAGGAUCUAUCAUCAGGUCAUUCUGAGUAUACUUUUGUUGUCGUACAAACUUUAUUGAAGGCUGAAGUGCAUUCAACAGAGGAUUGAGCAUCA
B13: chr11:99246770:99246771:-_ENSMUSG00000019761_ENSMUST00000103131|mus_mus|motif|central (ssRNA)
RNA: GGGAGUUCUACAGUCCGACGAUCGAAGAAAUACAGAAACCACAAAACACCUUUUAGACCUUAAUUUCAAGGAGUGAACCGGUUUCCACAGACCAUUAAGACAAAAGUGUUUCUUGGACAUUUAUGUUUUCCACACGUCUGUCCCAACAGAGGAUUGAGCAUCA
B14: chr16:50257146:50257147:+_ENSG00000121274_ENST00000436909|hu_hu|FALSE|FALSE (ssRNA)
RNA: GGGAGUUCUACAGUCCGACGAUCUAUCCGGAUGCCAGUCUUUAAAUAAUUGAAGUGUCGUCCAUAUAAUUCAAAAAAUUCUAUUAAGAGAACACCAUAGUUUGUAUUGGGGAUGCAAGCAUCUUCCCUGGGAUGUAACUGAAGCAACAGAGGAUUGAGCAUCA
B15: chr19:8913615:8913616:-_ENSMUSG00000071658_ENSMUST00000096259|mus_hu|mus_mus_mus_hu_False|28_98 (ssRNA)
RNA: GGGAGUUCUACAGUCCGACGAUCAGGGUACCAAAACACCCUGCCUCAAAUGGGUGCCCCACCCAGUAGGGAGUUGCAGCUGAAAGUAUCUGAUGCAGAAGCAGUGAAUGCAGAGAAGGAGGCCCCUGGGGAGGGCCAGGCCAGCAACAGAGGAUUGAGCAUCA
B16: chr9:82820052:82820053:-_ENSMUSG00000032253_ENSMUST00000034787|mus_mus|FALSE|FALSE (ssRNA)
RNA: GGGAGUUCUACAGUCCGACGAUCACCAUGUCCUUGUCCUUCAAUCAUAUUGAAAUAAGAUCGAACUUUGACUCCUCUUGCUAGAUCCCACACUAUCACAUUUCCAUCAUGACCAGCAGAGAAGAGAACUCUAGGAUCAAAUGGCAACAGAGGAUUGAGCAUCA
B17: 139340129_139341384_6848_CDS_ENSG00000148396_ENST00000313050|human|control|control (ssRNA)
RNA: GGGAGUUCUACAGUCCGACGAUCGGGGAGUUCAGAGCCAGGGAGUGACGCUGCAGAGCUUAAAACCUUGGGCUCUGGGGCAGGCUCUGGAUUGGCCAGGCCCCUAGCUGCUGCAGGCCCUUCCCUGCCAGUCCCGUCUGGAAGCAACAGAGGAUUGAGCAUCA
B18: chr22:19452774:19452775:-_ENSG00000070010_ENST00000399523|hu_hu|hu_hu_hu_mus_False|78_78 (ssRNA)
RNA: GGGAGUUCUACAGUCCGACGAUCCUUCUCAUUGUAGUUGAUAGCAAUCACAUCUCCGGUGGUCAGACAGGCGAAGUUUCUCAAUGCAUUUUCUAAUACCGCUUUAGGGUUGGUAAUAUCCAGGAAGUCUGGGCUCUGAGGCUGCAACAGAGGAUUGAGCAUCA
B19: 59989378_59996827_742_CDS_ENSG00000108506_ENST00000444766|human|control|control (ssRNA)
RNA: GGGAGUUCUACAGUCCGACGAUCUCCAAGACUUUCUUCAUCUUGUCGUUCUCCAUUUUUUAUCAGGCCCCUACAAACUUCAUUAAAACUAUCAGGAACAUUGGCCACCAAGAGACACAAGAACCAGGCACCAUUUCUAACAUGCAACAGAGGAUUGAGCAUCA
B20: chr5:128440902:128440903:+_ENSG00000066583_ENST00000173527|hu_mus|hu_hu_hu_mus_True|1_78 (ssRNA)
RNA: GGGAGUUCUACAGUCCGACGAUCUUGAACGGUGCUGCCAAGUCCUUUGGGGUAUUGUUCUGUUACAAUAACUGGAAUCCCUAAGAUCCGAGCUCCUUGCAACAGUCUCUGUCCCACACUAAUGAUGUCCCCAAAGUACUUGAUCAACAGAGGAUUGAGCAUCA
B21: chr4:103717905:103717906:-_ENSG00000109332_ENST00000394803|hu_hu|FALSE|FALSE (ssRNA)
RNA: GGGAGUUCUACAGUCCGACGAUCCAGUGCUAUAUUAAACAGUGUAUUGGAAGAUAGAUUAACUAAUAGCUCCAAGCCUCCUAACAAUUUAAAUGAAAAUUACAAAAUGUUUGAGACCCUAUUUUGGAAUACAAAGGGUGUUUGCAACAGAGGAUUGAGCAUCA
B22: chr9:100410314:100410315:+_ENSG00000136937_ENST00000375147|hu_hu|motif|central (ssRNA)
RNA: GGGAGUUCUACAGUCCGACGAUCGUGCCGUUCCUGCCAGCGAUCCUUUUUCAAUUUCUGAAUCUGGGCCCACAGGCAAUCGGAAUACUCUUCUUGUGGAUGUGGUUUAUCAGCAGUCCAUACCUGUAACAUGGGUACAUGAGUCAACAGAGGAUUGAGCAUCA

Each binder was assayed against T1, UNK ZnF1-3 (assay: nsRBNS (natural sequence RNA bind-n-seq); RBNS binding buffer (assumed for nsRBNS): 25 mM Tris pH 7.5, 150 mM KCl, 3 mM MgCl2, 0.01% Triton X-100, 500 ug/ml BSA, 20 U/ml SUPERase-In, 4 C; UNK is unkempt and MSI1 is Musashi-1; names of the RNAs are library labels; protein concentration not given here; high values mean tight binding).

Binder	binding signal [enrichment R]
B1	1.3
B2	0.292
B3	0.426
B4	1.69
B5	0.597
B6	1.32
B7	2.1
B8	0.511
B9	0.8
B10	0.735
B11	0.948
B12	1.27
B13	0.903
B14	1.41
B15	1.56
B16	1.03
B17	0.367
B18	0.996
B19	1.35
B20	0.268
B21	1.11
B22	0.711
